Measured values from the RNAGym collection of RNA variant scans (doi:10.1093/nar/gkz1192).
The source gives no read counts; variants with many changes may rest on few reads.

B1: CPEB3 Ribozyme (parent)
chain: UAACAGGGGGCCACAGCAGAAGCGUUCACGUCGCAGCCCCUGUCAGAUUCUGGUGAAUCUGCGAAUUCUGCUGUAUAUCUC

Variants of: B1
Experiment: self-cleavage, relative activity (ratio to wild type); higher = more cleavage; in vitro, sequencing
Method in brief: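 Libraries of CPEB3 self-cleaving ribozyme mutants came from rounds of error-prone PCR and carried barcodes, which DNA sequencing matched to variants. In vitro transcription used T7 RNA polymerase at 37°C for 5 hours, with a further 15 min in DNase I before EDTA stopped the reaction; the ribozymes cleaved during both steps. The RNA was reverse transcribed with template switching and sequenced on Illumina. Relative activity is the cleaved/total read fraction of a variant divided by that of the unmutated ribozyme, averaged over three batches with at least 5 reads.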

Variant	self-cleavage
C39G U49C C68U	0.06
C40U U41C A47U U58C U60A	0.14
A35U U66C U72A	0.14
C39A A64G U72C	0.17
C34U A45U U58C U67C	0.1
C37A C39A A47G U54C	0.09
C37A U51A U54C U58A	0.14
A35U U43C U49C U54C	0.23
A35U U43A U51G U54A U72G	0.89
C39A A45C U60C A65G	0.1
A35G U43C A56G G73A	1.25
A35U U41A C68G U69C	0.1
C40U A45U U78C U80C	0.1
C37U C59U C81A	1.01
C40U A45G U66G U78C	0.15
A35U A57G A64U U69C	0.09
A35U U43C U54C A65G	0.12
C40A A45U U58C	0.22
A35G U51C A65G U72C	1.05
C40A U54A A56U	0.36
A35G U60A U69C A75G	0.59
A35G C44U U69C U72A	0.13
A35U A45U A56G U80C	0.08
C34U A57U A64G	0.17

Variant	self-cleavage
U41A A56G U67G	0.03
A35U U43C A56G A64G	0.17
A35U A65G U69C	0.07
A35G A56G A64U U80A	1.18
C39U U49A U51A	0.26
G36C C71U U74C	0.1
A35U U48C A65G	0.13
A35U C40U A56G U78C	0.15
A35U U51A G53U U80C	0.75
C38G U54C U58C	0.12
A35U G63A U69C U76A	0.12
A35G C44U A75U U80C	1.16
C37A U54C A56G	0.36
C40U U41A A47G	0.21
A35G U49C U66C	0.38
A35G U66G U69A	0.65
C38A A57G U80A	0.1
G36C U43C U78C U80C	0.15
G36U U43A A45G	0.12
A35G U41C U49C A64G	0.45
A35U A45G A56C	0.08
U41A A56G U69C	0.19
A35C A65G A77U	0.26
C34U U48C G52U A57G	0.4

Variant	self-cleavage
A35G U48C A64G U67C C68U	0.48
A35U U51C U69G U72C	0.13
C37U U41C U72G	0.66
C39U A57G A77G	0.14
A35C A45G A57G C59G U67C U80C	0.11
C39U U43C U60C	0.16
A35G G53C U80A	1.28
C38A U41C A56G U67A	0.12
C39U G52U A56G U78C	0.71
A35U U54C U67A	0.09
U41A A56U U58A U66C U72C U78C	0.16
A35G A47U U67A G73A	0.79
A35U U54C U60C U66C	0.15
A35U A47G U49C U51C U60C G63U U69C	0.09
A35C A56G U67C U69C	0.19
A35G U41A U51C U67C	0.16
A35G U60C U78A	1.23
A35G U69C U72C	1.05
G36A U48C U74A	0.17
A35U U54A U58C U74C	0.5
A35G C71A U80C	1.13
A35U U67A U69C U80A	0.09
A35G A45G A57G U72C	1.22
A35G C50U A57G A75G	1.32

Variant	self-cleavage
A35U U49C U60C	0.09
C40G U43C A77U	0.27
C40U U60C U69C A75G	0.09
A35G U41A U54C C59U	0.18
C39U A64G U66C	0.13
A35C U54A U72C A75U	1.2
C40A C44U A45G A47G G61U U72A	0.28
U41A A47G G52U	0.26
A35C U41A U54A	0.24
C37A A45G U49C U66C	0.16
C38G A45G U51A A75U	0.15
A35G U43C A56G U69C	0.08
A35G U51C A57G	1.26
C38U A64G U67A	0.3
C38U U48C A65G	0.17
A35U U54A A56G	0.23
C40U A65U A75G	0.13
C39G U41C C81U	0.25
C37U A56G G70A U72A	0.12
A35G A77U U78C	1.23
A35G A47G A77G	1.28
G36A A47G G55U U67C U69C U72C	0.03
A35G U41A G61A	0.16
C34U U60C U67C	0.07

Variant	self-cleavage
A35G A56G U58C C62G A65U	0.26
A35U U66C U74C	0.21
A35U U43C U54C U69C U78A	0.07
C38G G55U A57U	0.17
C40U A45G G46U U72C	0.1
A35U U48C U66C U67C	0.13
G36U U67G U78C	0.09
A35G C50A A65C	0.18
A35U A45G U72G	0.24
A35U U41C A75C	0.57
A35G U41C U80C	1.28
C38G U43A A45G A64U G73A U80C	0.05
C34U U51A U67A	0.16
A35U U54C U66C	0.08
A35U U43C A45G U60A U67C	0.36
A35U G53A U72C	0.69
C37U C40U U58C U80A	0.22
A35G U66C U74C	1.37
A35G U43A U51A C81A	1.31
A35G U60C A75U	1.23
A35U U41C A47G G55U U72A	0.16
U41A A47G U60C	0.24
A35G C40U U54C A57G	1.15
A35G A45G U49A C79A	1.3

Variant	self-cleavage
A35G U41A A45U A64G U72C	0.15
A35U C38U U60C A75G	0.06
C40A A45U A64G U66C A77G	0.08
C40U A45G U72C	1
C37U C44A U72C	0.11
C37A A65G U67C U80A	0.06
U41A A47U U51C A56G A64G U66G	0.09
C38A U43C U72A	0.26
A35G C40U U49C U51A U66A U72C	0.39
A35C A45C U66C	0.19
A35G U69G U78C	1.2
A35G U43C U51A	1.24
G36U U51G U78A	0.14
A35U A45G U72A A75G	0.41
C37U A56G U66C	0.37
C39U A64G U69C U78C	0.07
A35G U43C A45U C50G U54A U78A	0.47
C37U U54C U66A	0.17
U41A A64U G73U	0.26
C34U C38U U49C U69C	0.17
U41A A56U U58C A65U A75G	0.14
A35G A47G G53A U60C C71A A77G	0.71
A35U U58C C59A	0.09
G36U A45G A65G	0.37

Variant	self-cleavage
C40U A45G G52A	0.84
A35G U48C U54C A75G	1
C39A A45C A56G U60C	0.14
A35G U54A A65C C68A	0.59
A35U U43C A56U	0.11
A35C G63A U69C	0.28
A35G U43A U49C A56U U67G U74C	0.33
C37U C40A A45G	0.3
A35U G36U C59U	0.11
G36U U67G G70C	0.11
C39A A45G U49C	0.08
C39A C40U G63A C68A U74C A77U	0.06
C38U U41C U80G	1.17
A35G G36A U58C G61A C68A U69C	0.18
A35G U41C A77G	1.27
C38U U48C U49G	0.17
A35G U48C U69C U72C	0.55
U41A A65U U66C U74C	0.14
C39A U51C U58A	0.1
A35G A45U U48A U72A U78C	0.22
A35G A47G U80C	1.23
A35G A64U U66C U72A	0.39
C38A U48C A57G	0.19
